# Laboratory results as given in the supplement of paper PMC4967469.
# The IC50 comes from the fitted curve, where viability falls to half of the control; a limit (>, <) means that the fit lies beyond the doses tested. For AUC the same curve is integrated over the 256-fold range of doses and scaled to a fraction; it is 1 without any effect and falls as sensitivity rises. For part of these data: Where the top dose is marked as inferred, it was derived from the fitted curves, not read from the paper. For part of these data: Drugs with an entry number were screened twice under separate entries, and the two screens often disagree.
# Assays:
# Assay in all cases: Viability of human cancer cell lines after 72 h of drug (GDSC screen)
# AZD6244 = compound: Cn1cnc2c(F)c(Nc3ccc(Br)cc3Cl)c(C(=O)NOCCO)cc21 [AZD6244]; conditions: top dose 4 µM; screen: GDSC drug entry 1498; top dose inferred
# Description: (§1)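 Human cancer cell lines in 384-well plates, medium with 10% serum, drug for 72 h over a 256-fold dose range (nine 2-fold or five 4-fold steps up to the top dose). Adherent lines were fixed and stained with the nucleic acid dye Syto60, suspension lines read with resazurin; signal relative to control wells, capped at 0 and 100%. One two-parameter sigmoid per drug and line, fitted in a mixed model over all curves with the slope shared within a line.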
# YM201636 = compound: Nc1ccc(C(=O)Nc2cccc(-c3nc(N4CCOCC4)c4oc5ncccc5c4n3)c2)cn1 [YM201636]; conditions: top dose 5.12 µM; top dose inferred
# Description: as §1
# AZ628 = compound: Cc1ccc(NC(=O)c2cccc(C(C)(C)C#N)c2)cc1Nc1ccc2ncn(C)c(=O)c2c1 [AZ628]; conditions: top dose 4 µM; top dose inferred
# Description: as §1
# EX-527 = compound: NC(=O)C1CCCc2c1[nH]c1ccc(Cl)cc21 [EX-527]; conditions: top dose 20 µM
# Description: as §1
# AS601245 = compound: N#CC(c1ccnc(NCCc2cccnc2)n1)c1nc2ccccc2s1 [AS601245]; conditions: top dose 8 µM; top dose inferred
# Description: as §1
Cell Line,AUC (AZD6244),IC50 (AZD6244),AUC (YM201636),IC50 (YM201636),AUC (AZ628),IC50 (AZ628),AUC (EX-527),IC50 (EX-527),AUC (AS601245),IC50 (AS601245)
"OCUB-M (breast, adherent)",0.98,> 4 µM,0.914,> 5.12 µM,0.959,> 4 µM,0.977,> 20 µM,0.619,1.01 µM
"OMC-1 (cervix, adherent)",0.914,> 4 µM,0.972,> 5.12 µM,0.987,> 4 µM,0.987,> 20 µM,0.896,> 8 µM
"ONS-76 (medulloblastoma, adherent)",0.422,0.15 µM,0.934,> 5.12 µM,0.436,0.165 µM,0.983,> 20 µM,0.971,> 8 µM
"OPM-2 (myeloma, suspension)",0.993,> 4 µM,0.839,2.61 µM,0.856,2.32 µM,0.994,> 20 µM,0.937,> 8 µM
"OS-RC-2 (kidney, adherent)",0.84,> 4 µM,0.912,> 5.12 µM,0.936,> 4 µM,0.978,> 20 µM,0.794,5.73 µM
"OVCAR-4 (ovary, adherent)",0.716,1.4 µM,0.871,> 5.12 µM,0.933,> 4 µM,0.971,> 20 µM,0.798,6.22 µM
"P30-OHK (lymphoblastic leukaemia, suspension)",0.986,> 4 µM,0.583,0.519 µM,0.984,> 4 µM,0.991,> 20 µM,0.798,3.1 µM
"P31-FUJ (acute myeloid leukaemia, suspension)",0.937,> 4 µM,0.99,> 5.12 µM,0.995,> 4 µM,0.996,> 20 µM,0.979,> 8 µM
"P32-ISH (Burkitt lymphoma, suspension)",0.995,> 4 µM,0.768,1.48 µM,0.98,> 4 µM,0.995,> 20 µM,0.849,3.88 µM
"PF-382 (T-cell lymphoblastic leukaemia, suspension)",0.99,> 4 µM,0.789,1.96 µM,0.882,3.31 µM,0.99,> 20 µM,0.898,7.84 µM
"PL-21 (acute myeloid leukaemia, suspension)",0.782,1.98 µM,0.753,1.96 µM,0.545,0.338 µM,0.971,> 20 µM,0.886,> 8 µM
"PSN1 (pancreas, adherent)",0.52,0.282 µM,0.892,4.33 µM,0.218,0.0445 µM,0.981,> 20 µM,0.801,3.2 µM
"QIMR-WIL (acute myeloid leukaemia, suspension)",0.954,> 4 µM,0.781,2.05 µM,0.848,2.85 µM,0.985,> 20 µM,0.848,5.69 µM
"RC-K8 (B-cell lymphoma, suspension)",0.98,> 4 µM,0.963,> 5.12 µM,0.972,> 4 µM,0.991,> 20 µM,0.946,> 8 µM
"RCC10RGB (kidney, adherent)",0.799,> 4 µM,0.897,> 5.12 µM,0.959,> 4 µM,0.962,> 20 µM,0.827,> 8 µM
"REH (B-cell leukaemia, suspension)",0.985,> 4 µM,0.805,2.45 µM,0.925,> 4 µM,0.984,> 20 µM,0.831,4.81 µM
"RF-48 (stomach, adherent)",0.98,> 4 µM,0.761,2.02 µM,0.931,> 4 µM,0.979,> 20 µM,0.874,> 8 µM
"RH-1 (rhabdomyosarcoma, adherent)",0.984,> 4 µM,0.644,0.745 µM,0.987,> 4 µM,0.99,> 20 µM,0.868,5.35 µM
"RKO (large intestine, adherent)",0.865,3.11 µM,0.894,> 5.12 µM,0.275,0.0608 µM,0.975,> 20 µM,0.727,2.09 µM
"RL (B-cell lymphoma, suspension)",0.978,> 4 µM,0.754,1.6 µM,0.9,> 4 µM,0.984,> 20 µM,0.963,> 8 µM
"ROS-50 (B-cell leukaemia, suspension)",0.979,> 4 µM,0.837,4.86 µM,0.845,> 4 µM,0.952,> 20 µM,0.96,> 8 µM
"RPMI-6666 (Hodgkin lymphoma, suspension)",0.929,> 4 µM,0.82,3.73 µM,0.809,2.62 µM,0.966,> 20 µM,0.744,2.93 µM
"RPMI-8226 (myeloma, suspension)",0.926,> 4 µM,0.93,> 5.12 µM,0.809,1.77 µM,0.991,> 20 µM,0.957,> 8 µM
"RPMI-8402 (T-cell lymphoblastic leukaemia, suspension)",0.978,> 4 µM,0.716,1.16 µM,0.963,> 4 µM,0.973,> 20 µM,0.868,5.43 µM
"RS4-11 (leukaemia, suspension)",0.97,> 4 µM,0.685,1 µM,0.94,> 4 µM,0.985,> 20 µM,0.808,3.72 µM
"RXF393 (kidney, adherent)",0.829,3.96 µM,0.858,> 5.12 µM,0.942,> 4 µM,0.974,> 20 µM,0.807,6.19 µM

Cell Line,AUC (AZD6244),IC50 (AZD6244),AUC (YM201636),IC50 (YM201636),AUC (AZ628),IC50 (AZ628),AUC (EX-527),IC50 (EX-527),AUC (AS601245),IC50 (AS601245)
"Raji (Burkitt lymphoma, suspension)",0.969,> 4 µM,0.932,> 5.12 µM,0.961,> 4 µM,0.986,> 20 µM,0.979,> 8 µM
"Ramos-2G6-4C10 (Burkitt lymphoma, suspension)",0.97,> 4 µM,0.91,> 5.12 µM,0.935,> 4 µM,0.99,> 20 µM,0.852,4.85 µM
"SBC-1 (small cell lung carcinoma, suspension)",0.975,> 4 µM,0.882,5.07 µM,0.967,> 4 µM,0.987,> 20 µM,0.965,> 8 µM
"SCC-15 (head and neck, adherent)",0.788,2.45 µM,0.943,> 5.12 µM,0.873,> 4 µM,0.978,> 20 µM,0.895,> 8 µM
"SCH (stomach, adherent)",0.978,> 4 µM,0.988,> 5.12 µM,0.988,> 4 µM,0.988,> 20 µM,0.988,> 8 µM
"SF126 (glioma, adherent)",0.93,> 4 µM,0.935,> 5.12 µM,0.94,> 4 µM,0.985,> 20 µM,0.915,> 8 µM
"SF268 (glioma, adherent)",0.956,> 4 µM,0.914,> 5.12 µM,0.924,> 4 µM,0.985,> 20 µM,0.849,6.73 µM
"SF539 (glioma, adherent)",0.915,> 4 µM,0.954,> 5.12 µM,0.933,> 4 µM,0.957,> 20 µM,0.877,6.63 µM
"SH-4 (melanoma, adherent)",0.554,0.38 µM,0.812,4.95 µM,0.193,0.0172 µM,0.96,> 20 µM,0.848,> 8 µM
"SHP-77 (small cell lung carcinoma, semi-adherent)",0.978,> 4 µM,0.922,> 5.12 µM,0.971,> 4 µM,0.987,> 20 µM,0.962,> 8 µM
"SIMA (neuroblastoma, adherent)",0.906,> 4 µM,0.838,4.15 µM,0.824,2.79 µM,0.977,> 20 µM,0.919,> 8 µM
"SJSA-1 (bone, adherent)",0.809,2.42 µM,0.97,> 5.12 µM,0.689,0.913 µM,0.983,> 20 µM,0.881,> 8 µM
"SK-ES-1 (Ewing sarcoma, semi-adherent)",0.978,> 4 µM,0.764,1.97 µM,0.955,> 4 µM,0.984,> 20 µM,0.884,> 8 µM
"SK-LMS-1 (soft tissue, adherent)",0.696,0.86 µM,0.889,> 5.12 µM,0.987,> 4 µM,0.987,> 20 µM,0.853,5.8 µM
"SK-MEL-1 (melanoma, suspension)",0.671,0.696 µM,0.954,> 5.12 µM,0.595,0.438 µM,0.986,> 20 µM,0.96,> 8 µM
"SK-MM-2 (myeloma, suspension)",0.986,> 4 µM,0.814,2.94 µM,0.982,> 4 µM,0.935,> 20 µM,0.911,> 8 µM
"SK-N-DZ (neuroblastoma, adherent)",0.963,> 4 µM,0.965,> 5.12 µM,0.979,> 4 µM,0.981,> 20 µM,0.906,> 8 µM
"SK-N-FI (neuroblastoma, adherent)",0.915,> 4 µM,0.986,> 5.12 µM,0.902,> 4 µM,0.989,> 20 µM,0.983,> 8 µM
"SK-PN-DW (Ewing sarcoma, adherent)",0.984,> 4 µM,0.826,3.27 µM,0.936,> 4 µM,0.983,> 20 µM,0.902,> 8 µM
"SK-UT-1 (soft tissue, adherent)",0.902,> 4 µM,0.881,4.56 µM,0.891,3.96 µM,0.988,> 20 µM,0.823,4.17 µM
"SLVL (B-cell lymphoma, suspension)",0.928,> 4 µM,0.853,4.39 µM,0.917,> 4 µM,0.928,> 20 µM,0.802,4.2 µM
"SNB75 (glioma, adherent)",0.95,> 4 µM,0.979,> 5.12 µM,0.956,> 4 µM,0.971,> 20 µM,0.763,4.25 µM
"SNU-C1 (large intestine, suspension)",0.431,0.148 µM,0.954,> 5.12 µM,0.957,> 4 µM,0.978,> 20 µM,0.98,> 8 µM
"SR (lymphoid neoplasm, suspension)",0.913,> 4 µM,0.826,2.7 µM,0.895,> 4 µM,0.948,> 20 µM,0.714,1.87 µM
"ST486 (Burkitt lymphoma, suspension)",0.988,> 4 µM,0.607,0.608 µM,0.749,1.17 µM,0.971,> 20 µM,0.713,1.83 µM
